Data on three compounds can be found in patent publication US20240376128A1, “N-CYCLOPROPYLPYRIDO [4, 3-D] PYRIMIDIN-4-AMINE DERIVATIVES AND USES THEREOF” (Jacobio Pharmaceuticals Co., Ltd., priority 2021, published 2024).

Data set [1] deals with T1, K-Ras G12R (Homo sapiens, UniProt P01116, G12R). As to the kind of experiment: SOS1 catalyzed nucleotide exchange assay (GDP form K-Ras), TR-FRET. The following applies: read-out: Biochemical assays, IC50, K-Ras G12R GDP. How it is done: (§1) The parameters were F486: Excitation 340 nm, Emission 486 nm, Lag time 100 pas, Integration time 200 pas; F515: Excitation 340 nm, Emission 515 nm, Lag time 100 pas, Integration time 200 pas. TR-FRET ratios for each individual wells were calculated by equation: TR-FRET ratio=(Signal F515/Signal F486)*10000.
Background: Time-resolved FRET reads energy transfer from a long-lived donor to a nearby acceptor.

Data set [2] has as its target T2, K-Ras WT (Homo sapiens, UniProt P01116). The description is as above. Conditions: read-out: Biochemical assays, IC50, K-Ras WT GDP. Here is the method: as §1
Data set [3] deals with T3, K-Ras Q61H (Homo sapiens, UniProt P01116, Q61H). Described as above. Conditions: read-out: Biochemical assays, IC50, K-Ras Q61H GDP. How it is done:
as §1

In data set [4] the target is T4, K-Ras G12A (Homo sapiens, UniProt P01116, G12A). The data set is described as above. Conditions: read-out: Biochemical assays, IC50, K-Ras G12A GDP. Here is the method:
as §1

Data set [5] has as its target T5, K-Ras G12C (Homo sapiens, UniProt P01116, G12C). Described as above. The following applies: read-out: Biochemical assays, IC50, K-Ras G12C GDP. How it is done: as §1
Data set [6] has as its target T6, K-Ras G12V (Homo sapiens, UniProt P01116, G12V). The data set is described as above. Conditions: read-out: Biochemical assays, IC50, K-Ras G12V GDP. How it is done:
as §1

The target in data set [7] is T7, K-Ras G13D (Homo sapiens, UniProt P01116, G13D). In words: Nucleotide exchange assay (GDP form K-Ras, no SOS1 added), TR-FRET. The following applies: read-out: Biochemical assays, IC50, K-Ras G13D GDP. Here is the method: as §1
The test system of data set [8] is AGS cell line (K-Ras G12D). As to the kind of experiment: Phospho-ERK1/2(THR202/TYR204) HTRF assay. Format: cell-based. The following applies: Homo sapiens; AGS cells (K-Ras G12D), 2 hours incubation; read-out: p-ERK, IC50(nM) AGS.
Data set [9] is described as follows: Mouse pharmacokinetic study. Format: in vivo. The following applies: female, Balb/c mouse, single dose 10 mg/kg, po, plasma; for AUC(0-t): read-out: AUC0-8h; for Cmax: read-out: Cmax. Here is the method: The purpose of this study was to evaluate the pharmacokinetic properties of compounds in Balb/c mouse (♀) following single dose administration. Six mice were needed for each compound and the six mice were divided into two groups (n=3/group), group A and group B. Mice in group A were treated with a single 3 mg/kg dose of compound (iv). Mice in group B were treated with a single 10 mg/kg dose of compound (po). For each mouse in group A, blood samples were collected at the time point of 0.083, 0.5, 1, 2, 4 and 8 h post-dose. For each mouse in group B, blood samples were collected at the time point of 0.5, 1, 2, 4, 6 and 8 h post-dose. Blood samples were placed on ice until centrifugation to obtain plasma samples. The plasma samples were stored at −80° C. until analysis. The concentration of compound in plasma samples was determined using a LC-MS/MS method.
For the prodrug, only the oral PK study was performed and the dosage was adjusted to be equal to 10 mg/kg of parent drug. The concentrations of both prodrug and parent drug in plasma were determined using a LC-MS/MS method.

The test system of data set [10] is SW620 cell line (K-Ras G12V). As to the kind of experiment: Phospho-ERK1/2(THR202/TYR204) HTRF assay. It counts as cell-based. Conditions: Homo sapiens, SW-620; SW620 cells (K-Ras G12V), 2 hours incubation; read-out: p-ERK, IC50(nM) SW620.
For data set [11], the target named is T1, K-Ras G12R. In words: GTP-K-Ras (GppNp-K-Ras) and cRAF interaction assay, HTRF. Conditions: read-out: Biochemical assays, IC50, K-Ras G12R GppNp. An excerpt: (§2) GppNp is an analog of GTP.
The target of data set [12] is T2, K-Ras WT. The data set is described as above. Conditions: read-out: Biochemical assays, IC50, K-Ras WT GppNp.
Excerpt: as §2

The target in data set [13] is T3, K-Ras Q61H. The data set is described as above. Conditions: read-out: Biochemical assays, IC50, K-Ras Q61H GppNp.
Excerpt: as §2

The target of data set [14] is T7, K-Ras G13D. Described as above. Conditions: read-out: Biochemical assays, IC50, K-Ras G13D GppNp.
Excerpt: as §2

For another data set, the target named is K-Ras G12D (Homo sapiens, UniProt P01116, G12D). Described as above. The following applies: read-out: Biochemical assays, IC50, K-Ras G12D GppNp.
Excerpt: as §2

The target of data set [15] is T4, K-Ras G12A. The description is as above. The following applies: read-out: Biochemical assays, IC50, K-Ras G12A GppNp.
Excerpt: as §2

In data set [16] the target is T5, K-Ras G12C. Described as above. Conditions: read-out: Biochemical assays, IC50, K-Ras G12C GppNp.
Excerpt: as §2

The target of data set [17] is T6, K-Ras G12V. The description is as above. The following applies: read-out: Biochemical assays, IC50, K-Ras G12V GppNp.
Excerpt: as §2

Data set [18] relates to K-Ras mutant and K-Ras WT cell lines indicated in Table 20. As to the kind of experiment: 2D cell growth inhibition assay (CellTiter-Glo, 6 days). It counts as cell-based. Here is the method: Each of cells in culture medium was plated in TC-treated 96-well plates at a density indicated in Table 20 and incubated in a cell incubator overnight.
On the technique in general: In ATP-based viability assays light output follows the ATP content of the culture.

Data set [19] concerns MKN-1 cell line (K-Ras WT amplification). As to the kind of experiment: Phospho-ERK1/2(THR202/TYR204) HTRF assay. Format: cell-based. The following applies: Homo sapiens; MKN-1 cells (K-Ras WT amplification), 2 hours incubation; read-out: p-ERK, IC50(nM) MKN-1.
The test system of data set [20] is K-Ras mutant and K-Ras WT cell lines indicated in Table 20. As to the kind of experiment: 3D cell growth inhibition assay (CellTiter-Glo 3D, 6 days). It counts as cell-based. Conditions: 144 h.
In data set [21] the test system is TCC-PAN2 cell line (K-Ras G12R). In words: Phospho-ERK1/2(THR202/TYR204) HTRF assay. Format: cell-based. The following applies: TCC-PAN2 cells (K-Ras G12R), 2 hours incubation; read-out: p-ERK, IC50(nM) TCC-PAN2.
Data set [22] relates to NCI-H358 cell line (K-Ras G12C). As to the kind of experiment: Phospho-ERK1/2(THR202/TYR204) HTRF assay. Format: cell-based. Conditions: Homo sapiens; NCI-H358 cells (K-Ras G12C), 2 hours incubation; read-out: p-ERK, IC50(nM) NCI-H358.
Data set [23] relates to NCI-H460 cell line (K-Ras Q61H). In words: Phospho-ERK1/2(THR202/TYR204) HTRF assay. The following applies: Homo sapiens; NCI-H460 cells (K-Ras Q61H), 2 hours incubation; read-out: p-ERK, IC50(nM) NCI-H460. Format: cell-based.
[24] abbreviates: 144 h, AGS (K-Ras G12D), absolute IC50, read-out: Cell Growth Inhibition, IC50, AGS.
Where [25] appears, read: Homo sapiens, ASPC1, 144 h, AsPC-1 (K-Ras G12D), absolute IC50, read-out: Cell Growth Inhibition, IC50, AsPC-1.
The mark [26] stands for this setting: Homo sapiens, SW-620, 144 h, SW620 (K-Ras G12V), absolute IC50, read-out: Cell Growth Inhibition, IC50, SW620.

Consider `C#Cc1c(F)ccc2cc(O)cc(-c3ncc4c(N(C)[C@@H]5C[C@H]5F)nc(OC[C@@]56CCCN5C[C@H](F)C6)nc4c3F)c12.O=C(O)C(F)(F)F` (single isomer, unassigned) [Compound 3], for which the IC50 – broadly, the point on the concentration scale where inhibition reaches its midpoint – at K-Ras G12R [1] amounted to 3.25 nM; on K-Ras WT [2], 2.4 nM; on K-Ras Q61H [3] it was 2.42 nM; at K-Ras G12A [4] it was 3.83 nM; on K-Ras G12C [5] it was 3.21 nM; on K-Ras G12V [6], 2.77 nM. Besides, the IC50 at K-Ras G13D [7] is 4.98 nM; in [8], 4.74 nM; in [10] it was 2.69 nM; on K-Ras G12R [11], 30.3 nM; at K-Ras WT [12], 112 nM; on K-Ras Q61H [13], 45.3 nM. The half-inhibitory concentration (IC50) on K-Ras G13D [14] is 6.97 nM; on K-Ras G12D, 28.3 nM; at K-Ras G12A [15] it was 272 nM; on K-Ras G12C [16] it was 283 nM; on K-Ras G12V [17] it was 77.9 nM; in data set [18] (setting [24]), 12 nM. For the same compound, the figures for the IC50 in data set [18] (setting [25]) and in data set [18] (setting [26]) were 78.4 nM and 4.32 nM, respectively. Besides, the AUC(0-t) in data set [9] is 3150 ng·h/mL. The peak concentration (Cmax) (in general, the maximum level reached in the sampled fluid or tissue) in data set [9] came out at 947 ng/mL.
For `[2H]C([2H])([2H])N(c1nc(OC([2H])([2H])[C@@]23CCC([2H])([2H])N2C[C@]([2H])(F)C3)nc2c(F)c(-c3cc(O)cc4ccc(F)c(C#C)c34)ncc12)C1CC1` [Compound 26, 4-(4-(cyclopropyl(methyl-d3)amino)-8-fluoro-2-(((2R,7aS)-2-fluorotetrahydro-1H-pyrrolizin-7a(5H)-yl-2,5,5-d3)methoxy-d2)pyrido[4,3-d]pyrimidin-7-yl)-5-ethynyl-6-fluoronaphthalen-2-ol], the IC50 at K-Ras G12R [1] is 8.85 nM; on K-Ras WT [2], 10.1 nM; at K-Ras Q61H [3] it was 8.56 nM; at K-Ras G12A [4] it was 13.5 nM; at K-Ras G12V [6] it was 1.89 nM; at K-Ras G13D [7], 10.4 nM. The concentration for half-maximal inhibition (IC50) turned out to be 36.2 nM in data set [8]; 8.74 nM in data set [10]; 154 nM at K-Ras G12R [11]; 369 nM at K-Ras WT [12]; 172 nM at K-Ras Q61H [13]; 20.3 nM at K-Ras G13D [14]. For the same compound, the concentration for half-maximal inhibition (IC50) at K-Ras G12D stood at 126 nM; on K-Ras G12A [15], 411 nM; at K-Ras G12V [17], 172 nM; in [18] (setting [24]) it was 118 nM; in data set [18] (setting [25]), 776 nM; in data set [18] (setting [26]), 20.5 nM. Further, in data set [9], the AUC(0-t) turned out to be 2590 ng·h/mL. Besides, in [9], the maximum concentration (Cmax) was determined as 813 ng/mL.
In the case of `C#Cc1c(F)ccc2cc(O)cc(-c3ncc4c(N(CC)C5CC5)nc(OC[C@@]56CCCN5C[C@H](F)C6)nc4c3F)c12` [Compound 47, 4-(4-(cyclopropyl(ethyl)amino)-8-fluoro-2-(((2R,7aS)-2-fluorotetrahydro-1H-pyrrolizin-7a(5H)-yl)methoxy)pyrido[4,3-d]pyrimidin-7-yl)-5-ethynyl-6-fluoronaphthalen-2-ol], the IC50 in data set [19] was found to be 18.6 nM; on K-Ras G12R [1] it was 2.56 nM; on K-Ras WT [2] it was 5.12 nM; on K-Ras Q61H [3], 2.84 nM; on K-Ras G12A [4], 10.4 nM; at K-Ras G12C [5], 4.69 nM. In addition, the IC50 at K-Ras G12V [6] was 1.13 nM; on K-Ras G13D [7], 5.07 nM; in [8] it was 14.8 nM; in data set [20] (TCC-PAN2 (K-Ras G12R), absolute IC50, read-out: Cell Growth Inhibition, IC50, TCC-PAN2), over 1000 nM; in data set [20] (Homo sapiens, MKN-1 (K-Ras WT), absolute IC50, read-out: Cell Growth Inhibition, IC50, MKN-1), 70 nM; in [20] (Homo sapiens, NCI-H358 (K-Ras G12C), absolute IC50, read-out: Cell Growth Inhibition, IC50, NCI-H358), 239 nM. In addition, the half-maximal inhibitory concentration (IC50) is 727 nM in [20] (Homo sapiens, NCI-H460 (K-Ras Q61H), absolute IC50, read-out: Cell Growth Inhibition, IC50, NCI-H460); 455 nM in data set [21]; 8.9 nM in data set [10]; 121 nM in data set [22]; 160 nM at K-Ras G12R [11]; 329 nM on K-Ras WT [12]. The concentration for half-maximal inhibition (IC50) at K-Ras Q61H [13] was 575 nM; on K-Ras G13D [14] it was 13.1 nM; on K-Ras G12D, 156 nM; on K-Ras G12A [15] it was over 1000 nM; at K-Ras G12C [16], 872 nM; at K-Ras G12V [17] it was 292 nM. For the same compound, the half-maximal inhibitory concentration (IC50) in data set [23] was determined as 45.6 nM; in data set [18] (setting [24]) it was 38.1 nM; in data set [18] (setting [25]), 476 nM; in [18] (setting [26]), 42.8 nM.
